B1: Pab2 (nuclear poly(A)-binding protein Pab2/PABPN1), full-length, yeast two-hybrid fusion (protein, UniProt B6K794 1-174)
chain: MSDDQSTDVVDVQDQELQAMKARVAEMEAEAEKLREMQEQLDKESEALRNDKEALDAQSVYVGNVDYSVTPEELQAHFAECGPINRVTILCDKFTGHPKGFAYIEFAEPSVVPNALLRNGSMLHDRPLKVTPKRMNIPGMSRGRGRGRGRGMRGRGRGAFRGGYRGRGRGYTPY
B2: Clr4 (histone H3 Lys9 methyltransferase Clr4/SUV39), full-length, yeast two-hybrid fusion (enzyme, UniProt B6K768 1-518)
chain: MGARKRVRTAETWDPEEEFEVEKIVDEKLDPKGNVMLYRVRWLNYSSRSDTWEPPSNLVGCTAVLRDWHKKQKRPLPAELLTPEERQNIPKVVKKTSSSPSARTSLGNSTPVARTSKGKQDSRGTSSRRSSTNKHKQKSKRGHDTNDDQEDLYSFFGSTKRPRKTSAEATEIIEIDVEDDNAPDTEIPKADDENTKEDLIVKPPSPLQKQFIIYPVSRPPTRDAYAHFSNYEKRELFRDRLRQLRGPEITLVNEVDDEPCPSLDFQFISEYRLTEGVIPPDPNFQSGCNCPSEGCNLLEPNSCQCLEDMDDPRSFAYDEHGRLRPDSGNVIYECNDFCSCSMDCPNRVVQRGRVLPLEVFKTKDKGWGVRTIRTVKAGTFVTCYLGEVISSHEAAERDKNYEKDGITYLFDLDMFDDASEYTVDAQRYGDVSRFFNHSCSPNLAIYSVVRNRGVRTIYDLAMFSIKDINPMEELTFDYAGIREQVSPVPKEPKQPIRHGKAYRKCRCGAPNCRGWLFS
B3: Red5 (ZC3H3 ortholog), full-length, yeast two-hybrid fusion (protein, UniProt B6JVP1 1-380)
chain: MAGTNSEEQKLLEQIASLAGAINKYKYSQEQIHHQSAQKPDGANSTNWRKRKLSHWSTSRNQTLVNNPPPSPSIKGAAAKTQDDVSSMSEDATEASMFVARKDRHMQLIHKSIYEQDAQARQASMETARAKLNEKRKAVAEKKTQQKLTDPNNHLLTIQELPFIINDKDPKFIECMDTLAQLPKHIYHEGRAYVLMNRSMYKFVGTSPYSVYCRYYNMVGYCAKGGKCMYVHDPAHKYVCPRFLSGNCPNGEQCSLSHDRDEKRTPACRYFLKGKCTNPVCRYAHVHYNESVPVCPDFSEYGMCENGLHCKMKHILKCTEYALKGACHNAKCRLYHPPKELESTEKKEGAVSAEKMQGEQKQDSESSSTASGATPIFISL
B4: Rmn1 (RBM26·27 ortholog), full-length, yeast two-hybrid fusion (protein, UniProt B6K5G4 1-589)
chain: MALLRHESAEEEVRQLCYSQLEDFLRQETIPFVDKVFDVLKERSYLEKEMKSPKGHLSTAATIPVSAPLAEKGPVAASNERPNAANAQANAPPFGGHQHPTLPAGFMPNPSGPPFPFPLPMLNPAAAAAAAAAAAAAAASGEFSPFQGSNNSSQASPMDIASPASPFPPPFQPRGSRRRCRDYETKGFCLRGDKCMFEHSSQPVRVSSPNHQNFAYDHRAPSRPIQHYSPRYIKGPSRDPSSTILQMRNVPPEYLDEQRIREFFEKFGPLEKVELHQTQSYAILHFKDHASAEAAWGSPEPIFNNRFIKVFWQATNTPSRGPPGQRRMTSSRVSHYTPYSRPQPRGEVVQEEDPVVTAQSPDFLKRVEEKQRAFEERRKKLEENKRKLEEINRKKQELALRQLKEQQVLMEKLKSADPASQSKVDILKTQLALLKAEADSLGIQVGSQNSPTPSTTTATSKPTVSYSHHPNASVGYSHAPARGRGGRFSFASMSLDNRPRRIQVNNVSPDKNELLLQHLLSVGEYESVTEPEPNTRMVNFRSRRAAEQFYDNVQTIDGLRDISLQWIPNGVAATQPSENQTDATMGNES
B5: Pla1 (canonical poly(A) polymerase), full-length, yeast two-hybrid fusion (enzyme, UniProt B6K102 1-563)
chain: MASKQWGITPPISTAPPTEKENALNTALVNELKAQNLFESAQDSEKRVRVLQELQAITTEFVRKVSLSKHMSEKMASESGGKIFTYGSYRLGVYGPGSDIDTLVVVPKHVSRENFFQDLEPMLRARPEITDLAAVPEAYVPIIKFKFLGISIDLIFARLSIPRVPLDLELSDSNLLKGVEERCILSLNGTRVTDQILQLVPNRAVFKHALRAIKFWAQRRAIYANVVGFPGGVAWAMMVARICQLYPNAVSAVIVSKFFRILSQWNWPQPVLLKPIDDGPLQVRVWNPKLYPSDKAHRMPIITPAYPSMCATHNITPSTQTVILREMARAGLIVDDIMAGKKPWSALFEKHDFFHRYRYYLTVTAASKTADSQLKWSGLVESKLRHFVTRLELVDAITLAHPFNKGFNKIYMCKTEEEAQQVANGVSTAVVAKDANLEEAAKAGDQNEHKEGEGDAADEKKFSVYTTTFYIGLEIERKKGPQSKRLDITWPSQEFSEMCKKWDKFDDTMMTVFIKNTRNYTLPDEVFEPGEERPKPPTKKRIASAEKKTENDQVPKRQKVPQA
B6: Pab2ΔIDR (Pab2 lacking the C-terminal IDR), yeast two-hybrid fusion (domain or fragment, UniProt B6K794 1-135)
chain: MSDDQSTDVVDVQDQELQAMKARVAEMEAEAEKLREMQEQLDKESEALRNDKEALDAQSVYVGNVDYSVTPEELQAHFAECGPINRVTILCDKFTGHPKGFAYIEFAEPSVVPNALLRNGSMLHDRPLKVTPKRM
B7: Clr4 middle domain (M, amino acids 76-220), yeast two-hybrid fusion (domain or fragment, UniProt B6K768 76-220)
chain: LPAELLTPEERQNIPKVVKKTSSSPSARTSLGNSTPVARTSKGKQDSRGTSSRRSSTNKHKQKSKRGHDTNDDQEDLYSFFGSTKRPRKTSAEATEIIEIDVEDDNAPDTEIPKADDENTKEDLIVKPPSPLQKQFIIYPVSRPP
B8: Clr4 chromodomain (CD, amino acids 1-75), yeast two-hybrid fusion (domain or fragment, UniProt B6K768 1-75)
chain: MGARKRVRTAETWDPEEEFEVEKIVDEKLDPKGNVMLYRVRWLNYSSRSDTWEPPSNLVGCTAVLRDWHKKQKRP
B9: Clr4 SET domain (amino acids 221-518), yeast two-hybrid fusion (domain or fragment, UniProt B6K768 221-518)
chain: TRDAYAHFSNYEKRELFRDRLRQLRGPEITLVNEVDDEPCPSLDFQFISEYRLTEGVIPPDPNFQSGCNCPSEGCNLLEPNSCQCLEDMDDPRSFAYDEHGRLRPDSGNVIYECNDFCSCSMDCPNRVVQRGRVLPLEVFKTKDKGWGVRTIRTVKAGTFVTCYLGEVISSHEAAERDKNYEKDGITYLFDLDMFDDASEYTVDAQRYGDVSRFFNHSCSPNLAIYSVVRNRGVRTIYDLAMFSIKDINPMEELTFDYAGIREQVSPVPKEPKQPIRHGKAYRKCRCGAPNCRGWLFS

Numbering of substitutions follows the chain as printed. These are yes or no findings as the source states them, for the method shown. Some binding calls cover weakened binding; strength is not graded here. Sequences can lack the tags named with a protein.

One test concerns the target T1, Ppn1^(V354A, L355P), yeast two-hybrid fusion (S. japonicus) (UniProt B6K4E4).
T1 sequence: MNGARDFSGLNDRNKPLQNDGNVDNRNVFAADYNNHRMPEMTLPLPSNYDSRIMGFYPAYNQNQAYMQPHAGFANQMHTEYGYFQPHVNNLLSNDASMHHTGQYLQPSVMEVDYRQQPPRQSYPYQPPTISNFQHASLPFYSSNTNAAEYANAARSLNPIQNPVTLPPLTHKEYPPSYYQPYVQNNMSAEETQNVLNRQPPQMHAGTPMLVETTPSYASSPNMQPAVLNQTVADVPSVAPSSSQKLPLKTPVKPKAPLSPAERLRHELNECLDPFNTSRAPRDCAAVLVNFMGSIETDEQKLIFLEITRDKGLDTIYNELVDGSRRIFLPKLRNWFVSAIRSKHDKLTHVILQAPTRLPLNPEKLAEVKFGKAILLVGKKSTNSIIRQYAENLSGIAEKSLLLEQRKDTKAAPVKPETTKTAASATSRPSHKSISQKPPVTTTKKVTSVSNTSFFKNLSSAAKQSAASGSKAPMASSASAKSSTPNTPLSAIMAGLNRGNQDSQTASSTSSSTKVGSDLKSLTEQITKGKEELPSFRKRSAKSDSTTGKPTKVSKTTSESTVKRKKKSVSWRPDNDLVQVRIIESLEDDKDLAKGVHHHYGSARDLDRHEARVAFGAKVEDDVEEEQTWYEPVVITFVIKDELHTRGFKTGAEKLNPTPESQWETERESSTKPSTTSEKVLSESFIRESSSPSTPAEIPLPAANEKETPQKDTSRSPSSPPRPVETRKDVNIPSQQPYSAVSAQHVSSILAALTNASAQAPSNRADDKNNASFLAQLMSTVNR
In words: two-hybrid; pGBKT7 and pGADT7 plasmids co-transformed into S. cerevisiae AH109; growth on CM -Leu-Trp-His (medium interaction) and CM -Leu-Trp-His-Ade (strong interaction).
For B1, the binding result is “no binding”.

In the case of B2, the binding result is reported as “no binding”.

The next test concerns the target T2, Rmn1 (RBM26·27 ortholog), full-length, yeast two-hybrid fusion (S. japonicus) (UniProt B6K5G4).
T2 sequence: B4 chain
Described as above.
Regarding B2, the binding entry was “binds”.

With B3, the binding result was “binds”.

The target of another test is T3, Pab2 (nuclear poly(A)-binding protein Pab2/PABPN1), full-length, yeast two-hybrid fusion (S. japonicus) (UniProt B6K794).
T3 sequence: B1 chain
The test is described as above.
Regarding B3, the binding entry is on record as “binds weakly”.

For the molecule B4, the binding result is “binds”.

For the molecule B5, the binding entry is “no binding”.

A further test has as its target T4, Ppn1 (PPP1R10 ortholog), full-length, yeast two-hybrid fusion (S. japonicus) (UniProt B6K4E4).
T4 sequence: T1 sequence with A354V, P355L
The description is as above.
Regarding B1, the binding result is recorded as “binds”.

B2: the binding entry was “binds”.

As to NIPGMSRGRGRGRGRGMRGRGRGAFRGGYRGRGRGYTPY (domain or fragment, UniProt B6K794 136-174) [Pab2 C-terminal intrinsically disordered region (IDR) fragment, yeast two-hybrid fusion], the binding entry is listed as “no binding”.

Consider B6, for which the binding entry was “no binding”.

Turning to B7, the binding result is “binds”.

Turning to B8, the binding result is recorded as “no binding”.

As to B9, the binding entry is reported as “no binding”.

The record behind these values is paper PMC12002642.
